± gives the standard deviation of the averaged measurements. The list shows a part of the results.
Each sequence was assayed on PfAP2-G AP2 domain (GST-tagged) (assay: gcPBM binding intensity (ln(normalized median fluorescence intensity)); higher = stronger DNA binding).
Procedure, shortened: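 Alexa488 anti-GST antibody, scanned at 488 nm, detected GST-tagged P. falciparum DNA-binding domains that had been expressed in E. coli and incubated for 1 h on an Agilent 4 × 180k array. The array carried primer-extended double-stranded 36-bp intergenic genomic probes and negative controls. Binding intensity is the highest Masliner-normalised natural-log median intensity across replicate spots of either orientation of each probe.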

Sequence	gcPBM binding intensity (ln)
AGATTGAAATATAGTTGTACAAATATTTTAAAACAT [XGTACX_site3026]	11.3 ± 0.86
CAATCAACAAAACATACACACACATATATATATATA [CACACA_site8979]	10.1 ± 0.23
AACATATTTTTTTGTTGTACTTACAATTATAAGCAT [XGTACX_site3056]	11.6 ± 1
TATACCAAATATATGGGTACACAAATATGTTTATTC [XGTACX_site8932]	11.6 ± 0.89
TAATTAATCGATTTACGCACATGAACAAAAGCACAT [CACACA_negctrl_site1287]	10.3 ± 0.24
TTAAACATATATTAAGCACACACAAACAAAAAAACA [CACACA_site8816]	10.2 ± 0.21
ACTATTTTCTTCAAAACATGCACCACATAAACATAA [TGCATGCA_site200]	10.6 ± 0.51
ATTATTTATTTATGTGTGCGCATGTGTGTAAATATT	10.6 ± 0.35
TATAAAGCAACTGAAACACACAAATTTTTTTTTTTT [CACACA_site3218]	9.7 ± 0.071
GTAAATATTAATAAAAGTACATATGTAGCATATGGA [XGTACX_site5219]	11.2 ± 0.67
CCTTTTTTATTTACAACACACGTAAAGGTTCAAATA [CACACA_site1741]	10.4 ± 0.35
AGAAAAAAAAAAAATGCACACATTTTCATTGTCAGT [CACACA_site1935]	9.85 ± 0.042
ATATATATATATATGTGTACATATTTTTTTTTTTTT [XGTACX_site3425]	11.4 ± 0.82
AAAAAACACAGACATACACACAAAAAGGTTATAAAT [CACACA_site4222]	10.05 ± 0.049
ACAGAAAAAAGACACACACACATAATATACATACAT [CACACA_site6991]	10.2 ± 0.11
TTTTTTTCGTAAAAAAAAATAATTATTAAATGAAGG [TGCATGCA_negctrl_site212]	10.01 ± 0.099
ATTTTTTAAATGAGGCGTACACAAAAATATAATTAC [XGTACX_site7087]	11.7 ± 1.1
TATATATATATATATACACACACACTAATAAAAAAA [CACACA_site8426]	10.2 ± 0.3
CTTAGATATAAAAATTGTACATACATATTTTTGACA [XGTACX_site2107]	11.1 ± 0.63
TTTATTTATTTTTAACGTACGCACACATATAAATAT [XGTACX_site4042]	11.4 ± 0.72
TAAACACCCATATAAACACACATATAAACACCCATA [CACACA_site5382]	10.2 ± 0.3
TATATACATTGGTATACATGCATTCTCTTTCATACA [TGCATGCA_site734]	9.995 ± 0.007

Sequence	gcPBM binding intensity (ln)
TAAAATTTATAAACTACACACATATAAATAGTAATA [CACACA_site7708]	10.06 ± 0.064
TATTATAAAATATACACATGCAAAAACAAAATTTAC [TGCATGCA_site1051]	10.11 ± 0.092
TATTTTTAATAAAAACGTACGGAATACAAAAAAAAT [XGTACX_site3477]	11 ± 0.63
AAAATTTAAAAATGGACACACACAAAAAATAATACT [CACACA_site7972]	10.9 ± 0.49
AACTTTTTACAAACAGGTACGCATATATATATATAT [XGTACX_site5081]	11.1 ± 0.62
AATAATTATTTGTATAGTACAATATACAAAAGATGA [XGTACX_site4312]	10.9 ± 0.57
GAAAAAAAAAAAAGGGGTACATTTATTTTATCAATA [XGTACX_site8331]	11.5 ± 1
TTTTTTTTTTTTTTTTTTTTTTTCTTTATTTTTTTT [CACACA_negctrl_site703]	9.59 ± 0.25
CACATACACATACAAACACACATTATATATATATAT [CACACA_site8460]	10.3 ± 0.47
CATCCATTATTAATATGTACATATGTATATATATTA [XGTACX_site1318]	11.2 ± 0.74
AAAATTAATAAATAAACACACATATTTATATTTATA [CACACA_site7266]	9.495 ± 0.092
TATAAATATAGACACACACACACACCGAAGCGTAGC [CACACA_site6180]	10.2 ± 0.25
TCGTCACTTTAATATTGTACATATATATATATATAT [XGTACX_site8046]	11.1 ± 0.65
ATATATATATGTGCCAGTACACATGTATACATTATA [XGTACX_site3899]	11.2 ± 0.57
GATATATATATTCACACACACATGGAAATATATATA [CACACA_site382]	9.88 ± 0.028
AATATTTTGAACAACAGTACTCTTTCTTTCTTTCTT [XGTACX_site7212]	10.9 ± 0.54
TCCTTTTCATCTTGTAGTACGGAAATGTAGCTCCAA [XGTACX_site8563]	11.1 ± 0.61
TATATGTATTTATATACACACATATTCTTTTTACAC [CACACA_site8320]	10.2 ± 0.3
TATATCTACTTAAAAAGTACGTAAATTATAAGCTAT [XGTACX_site6420]	11.1 ± 0.74
TGTGTAAATATGTATACACACATATCTGATCAATAT [CACACA_site7507]	10.1 ± 0.14
TATGTATAACTCAATGCATGCGAAGGACTATTATTT [TGCATGCA_site222]	10.2 ± 0.23
AATATTGTTCACAAGGTGCTTTTTATTCATACTAAT	10.01 ± 0.028

Sequence	gcPBM binding intensity (ln)
GATTAAAACTTTAACTGTACATAATAATTATCAATC [XGTACX_site5938]	11 ± 0.61
TTTAAAATTTCTTAATGTACGTAATAAAAAAAAAAA [XGTACX_site4037]	11.4 ± 1.2
ACCTCACAAATGAATACACACAAACATATAGATTTA [CACACA_site6862]	10.1 ± 0.25
ATATATAAAATTATATGTACATATATCTATTTATAA [XGTACX_site3713]	11.2 ± 0.68
TTTTCCTTTTTTTTTACATGCAGATATAGAAAGGTA [TGCATGCA_site106]	10.1 ± 0.43
TTGTTTTGGATTATCACACATATAATATATACTCAT [CACACA_site4780]	10.06 ± 0.035
AAATACATAACTTAAAATTTGTTCATATCTATACAT [TGCATGCA_negctrl_site249]	9.88 ± 0.18
TATAATAATATGGATTGTACATATATATTTAATTAA [XGTACX_site4327]	10.8 ± 0.55
AATTAAATATTATAAACACACATATAGATTATTTTT [CACACA_site6538]	9.91 ± 0.13
ATTTTAAATATGGAATGTACTTAAAAAAAATTTCAT [XGTACX_site5058]	11.1 ± 0.81
ATTTCTTATTAAATTACACACAAAGTAAATAAATCT [CACACA_site3924]	9.965 ± 0.064
GTAATTTTTTTCTATACACACATATCTATAATATAT [CACACA_site7284]	10.2 ± 0.13
TACTTATAATTTCAATGTACATATATATAATATCAT [XGTACX_site2424]	11 ± 0.61
ACAATAAAATATGGCACACATATATATATATATTTA [CACACA_site3]	10.2 ± 0.2
ATTTATTTTAGTAAAGCACACGTGTAAAATATATCT [CACACA_site4820]	10.4 ± 0.2
AACACCCATGGACACACACACATATATATATATATA [CACACA_site5809]	10.8 ± 0.6
TTTTTATAAGCATAAAGTACAAATATTTTTTAGTTG [XGTACX_site4140]	11 ± 0.59
TAAATCCGTTTGATGGGTACATACATACATACATAT [XGTACX_site8889]	11.2 ± 0.79
AAAAAAAAAAAAAAAAAATACATATACATTTGTGCA [CACACA_negctrl_site1431]	10.5 ± 0.26
TTTTTATTTATATATAAGGAAAATGCGGTATATATT [CACACA_negctrl_site1770]	10.2 ± 0.16
TCTTTTTTGAACTAGCGTACATGAAAATATTTATAG [XGTACX_site7359]	11.4 ± 1
TTATTACATATAAAGGAAAATAGCATCTAGATTAAA [XGTACX_negctrl_site435]	9.82 ± 0.014

Sequence	gcPBM binding intensity (ln)
CATATTTCTTACATTTGTACTTAATAAAATTAATCA [XGTACX_site7224]	11 ± 0.63
AAAAAAATTTATAAATATTTTATTAATATATTTACC [GTGCAC_negctrl_site690]	9.51 ± 0.2
CATATATAAAAAAACACACACATATTTATATTTATA [CACACA_site6682]	9.895 ± 0.064
ACACAAAACAAAAAGGTGCTGTATAAATGGGTGTAT [GTGCAC_site9905]	10.1 ± 0.085
TTTTTATACAACTTATAATACATCTGAAAATATAAA [XGTACX_negctrl_site36]	9.93 ± 0.11
TTGTCTGACTAATTTTTTTCTGTTTGTACGTTCTTA [GTGCAC_negctrl_site602]	11.2 ± 1
TATCACATATTATGATGTACAAGGTTTCTGACTAAT [XGTACX_site2763]	10.9 ± 0.55
ATAATTATACATATTACACACTCTCTTGATCTTTTT [CACACA_site3853]	9.87 ± 0.11
ACAAAATAAATATGAACACACACATTTATGCCTTTA [CACACA_site8346]	9.84 ± 0.16
AAACATTTAAATGGAAACACAGAAAAATGAAAAATG [CACACA_negctrl_site457]	10.4 ± 0.2
TTTTTTTTTTGTAATACACACCACTATATGTTATTT [CACACA_site5087]	9.985 ± 0.007
ATATATATATATACATGTACATATATACATTATATT [XGTACX_site936]	11 ± 0.57
TATATATATATATATTGTACTTTATTTTATATATTC [XGTACX_site5697]	11.2 ± 0.71
ATTTATAATGAGTATACACACATATATAGATTTGCT [CACACA_site4517]	9.955 ± 0.035
ATTATTATTGTCAAATGTACAAGCTAATAATTTTTA [XGTACX_site7167]	10.6 ± 0.33
ATGTTATATTTTTTTATACACACTGGAATATATAAA [CACACA_site215]	10.1 ± 0.16
TAAAAAATAAAATACACACACATATTTATATTTATA [CACACA_site6737]	9.78 ± 0.042
AAAAAAAAAAAAAACATACACACAAGAACAAAATAT [CACACA_site3003]	10.07 ± 0.071
CAACAACATTTTTCATGTACATATATTTTATAATAT [XGTACX_site519]	11.3 ± 0.8
TATTTTATCATTTGCACACGCACACCCACATAAAAA [CACACA_site354]	10.7 ± 0.6
TATATTAAAACAAGCACACAATCGCATAATATCCTT [CACACA_site3210]	9.895 ± 0.049
AGTATTATATTTTCTTGTACACATGTAAAATACCTC [XGTACX_site1359]	11.4 ± 0.88
